Several values for one entry are separate records, joined by “and”; a condition that tells them apart may be missing. Equal values may be shown once. The name of at least one read-out is uncertain.
Tested on: Leukosis cells of P-388 mouse
Experiment: Antitumor Effect Test (P-388 leukemia grafted into the abdomen of mice, ratio of survival days T/C)
Assay type: in vivo
Conditions: dosed into the abdomen successively for 5 days, P-388 in CDF1 or BDF1 mouse
Excerpt: [Antitumor Effect Test] Leukosis cells of P-388 mouse of 1×10^6 /mouse were grafted into the abdomen of CDF1 or BDF1 mouse, and the fixed quantity of the compound of this invention was successively dosed into the abdomen for 5 days. Each 6 mice per dose level as test groups and 30~33 mice as control groups were used. [formula]

SMILES | T/C (ratio of survival days) (30 mg/kg) | T/C (ratio of survival days) (60 mg/kg) | T/C (ratio of survival days) (120 mg/kg) | T/C (ratio of survival days) (240 mg/kg)
O=C(NCCC[n+]1ccccc1)n1cc(F)c(=O)[nH]c1=O [Experiment 17, 5-Fluoro-3,4-dihydro-2,4-dioxo-N-[3-(1-pyridinio)propyl]-1(2H-pyrimidinecarboxamide chloride] | 115% | 131% | 161% and 120% | –
O=C(Nc1c[nH]c2ccccc12)n1cc(F)c(=O)[nH]c1=O [Experiment 3] | 116% | 117% | 128% | 170% and 142%
O=C(NCCCCCCNC(=O)n1cc(F)c(=O)[nH]c1=O)NNC(=O)c1ccncc1 [Experiment 23] | – | – | 115% | 123%
NS(=O)(=O)c1ccc(NC(=O)NCCCCCCNC(=O)n2cc(F)c(=O)[nH]c2=O)cc1 [Experiment 20] | – | – | 96% | 102%
O=C(NCNC(=O)n1cc(F)c(=O)[nH]c1=O)c1ccccc1 [Experiment 13] | 103% | 115% | 132% | –
O=C(NCC[n+]1ccccc1)n1cc(F)c(=O)[nH]c1=O [Experiment 14, 5-Fluoro-3,4-dihydro-2,4-dioxo-N-[2-(1-pyridino)ethyl]-1(2H-pyrimidinecarboxamide chloride] | – | 212% | – | –
O=C(NCCCCCCNC(=O)n1cc(F)c(=O)[nH]c1=O)NNC(=O)c1cccnc1 [Experiment 22] | – | 126% | 115% | 140% and 99%
CN(C)CCCNC(=O)NCCCCCCNC(=O)n1cc(F)c(=O)[nH]c1=O [Experiment 21] | 123% | – | – | –
O=C(Nc1ccc[n+]([O-])c1)n1cc(F)c(=O)[nH]c1=O [Experiment 2] | – | 175% | 128% and 92% | –
O=C(NCCCCCCNC(=O)n1cc(F)c(=O)[nH]c1=O)Nc1ccccn1 [Experiment 19] | – | 151% | 160% | 198% and 109%

— patent US4792607A, “5-fluoro-3,4-dihydro-2,4-dioxo-N-(3-indolyl)-1(2H)-pyrimidinecarboxamides” (Chisso Corporation, priority 1986, dated 1988)
